This is an account of results in patent US20240279296A1 (YUHAN, published 2024).

The assay has as its target T1, human β-klotho (human, UniProt Q86Z14 1-1044).
T1 sequence (looked up): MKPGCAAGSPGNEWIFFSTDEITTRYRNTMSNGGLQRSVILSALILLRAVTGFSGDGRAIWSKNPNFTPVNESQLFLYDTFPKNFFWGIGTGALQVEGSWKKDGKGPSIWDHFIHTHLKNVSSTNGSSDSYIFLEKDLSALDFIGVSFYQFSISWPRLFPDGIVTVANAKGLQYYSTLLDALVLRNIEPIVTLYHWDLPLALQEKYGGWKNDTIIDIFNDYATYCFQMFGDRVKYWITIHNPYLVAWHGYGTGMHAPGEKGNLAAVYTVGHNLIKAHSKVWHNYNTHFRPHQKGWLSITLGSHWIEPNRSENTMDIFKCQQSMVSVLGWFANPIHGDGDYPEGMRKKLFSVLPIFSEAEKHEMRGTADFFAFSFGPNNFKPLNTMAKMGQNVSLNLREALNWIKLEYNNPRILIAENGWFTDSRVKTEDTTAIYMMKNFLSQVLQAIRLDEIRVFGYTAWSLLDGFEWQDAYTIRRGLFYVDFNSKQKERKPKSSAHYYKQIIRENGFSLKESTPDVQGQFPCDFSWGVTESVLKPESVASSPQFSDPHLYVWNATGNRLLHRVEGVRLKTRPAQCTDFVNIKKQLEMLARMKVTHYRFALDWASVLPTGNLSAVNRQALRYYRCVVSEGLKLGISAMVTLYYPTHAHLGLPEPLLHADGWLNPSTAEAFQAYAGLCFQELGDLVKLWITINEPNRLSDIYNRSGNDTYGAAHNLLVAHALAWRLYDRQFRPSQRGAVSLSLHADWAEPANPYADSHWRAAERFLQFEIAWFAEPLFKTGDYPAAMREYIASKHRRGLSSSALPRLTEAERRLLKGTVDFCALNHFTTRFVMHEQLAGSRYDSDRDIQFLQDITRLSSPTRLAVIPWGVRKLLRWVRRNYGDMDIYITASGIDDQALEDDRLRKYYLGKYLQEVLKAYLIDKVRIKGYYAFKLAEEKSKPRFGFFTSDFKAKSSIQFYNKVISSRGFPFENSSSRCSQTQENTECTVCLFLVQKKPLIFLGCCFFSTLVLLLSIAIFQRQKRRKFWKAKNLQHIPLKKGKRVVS
Put plainly: cell-based or functional assay.

B1: Fc-FGF21 (Lilly) (Fc fusion)
chain: [gap - human IgG4 Fc with S228P F234A L235A (EU numbers)]GGGGSGGGGSGGGGSAHPIPDSSPLLQFGGQVRQRYLYTDDAQQTECHLEIREDGTVGCAADQSPESLLQLKALKPGVIQILGVKTSRFLCQRPDGALYGSLHFDPEACSFREDLKEDGYNVYQSEAHGLPLHLPGDKSPHRKPAPRGPARFLPLPGLPPALPEPPGILAPQPPDVGSSDPLRLVEPSQLRSPSFE
Regarding B1, the “in vitro activity (ERK phosphorylation in HEK293 cells overexpressing human β-klotho), relative to DFD1 and RGE (Amgen)” value came out at 2 times.
